# “Also recorded” adds a separate entry of the source. Inconclusive results are not listed. Unless noted, calls come from the whole dose curve; as a rule, active = well fitted curve in the direction sought with a large enough effect in the repeat runs; inconclusive = weak or mixed curves; inactive = no such curve, though single readings can be large; an effect the other way counts as inactive or inconclusive. Not every entry of the source has a single result; some have several. They are shown here; other results are not. An entry can have further records. Values given together repeat one measurement (runs, samples, wells, individuals or studies). What stands in brackets tells the records apart. A, B and so on number the origins entry by entry. More than one record can exist for a structure, and the calls need not agree.
# How the values were obtained:
# [1] = qHTS assay to identify small molecule antagonists of the constitutive androstane receptor (CAR) signaling pathway - cell viability counter screen (AID 1224837); note: nearly all actives have a fitted effect of over 45% in size; for activity change, negative = cytotoxicity: series mostly up to about 92 µM
# In short: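 HepG2 cells stably expressing hCAR and a CYP2B6-2.2kb reporter were plated and pre-incubated 4 hr at 37 C/5% CO2, then given compounds at 15 concentrations plus 50 nM CITCO (final). After 23 hr, viability was read by CellTiter-Fluor fluorescence.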
# [2] = A CellTox Green Cytotoxicity Assay to monitor cytotoxicity in HEK293 cells - 24 hour (AID 1224875); note: nearly all actives have a fitted effect of over 45% in size; for activity change: series mostly up to about 77 µM
# In short: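 HEK293 cells premixed with CellTox Green dye were seeded at 600 cells/well and left 5 h at 37 C/5% CO2 before pin transfer of 23 nL compound in DMSO. Fluorescence from dye bound to dead-cell DNA was read during 40 h treatment.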
# [3] = qHTS assay to identify small molecule antagonists of the estrogen receptor alpha (ER-alpha) signaling pathway using the BG1 cell line in the presence of 0.1 nM 17-beta-estradiol - cell viability counter screen (AID 1259241); note: nearly all actives have a fitted effect of over 40% in size
# In short: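 VM7Luc4E2, 4,000 cells/well, phenol red-free medium + 10% charcoal-stripped FBS; 24 hr plating; cpd + 0.1 nM E2 final, 22 hr 37C/5% CO2; CellTiter-Fluor 30 min, fluorescence.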
# [4] = qHTS assay to identify small molecule antagonists of the TGF-beta/Smad signaling pathway - cell viability counter screen (AID 1346824); note: nearly all actives have a fitted effect of over 50% in size
# In short: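 Cytotoxicity counter-screen run in the same wells as the beta-lactamase Smad reporter read: CellTiter-Glo luminescence after 30 min at room temperature. HEK 293T SBE-bla cells had 5 hr compound exposure at 37 C with TGF-beta1 (0.25 ng/mL stock).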
# [5] = qHTS assay for small molecules that induce genotoxicity in human embryonic kidney cells expressing luciferase-tagged ATAD5 - cell viability (AID 651634; calls by dose curve; note: nearly all actives have a fitted effect of over 25% in size)
# From the text: National Center for Advancing Translational Sciences [NCATS]
# NIH Chemical Genomics Center [NCGC]
# U.S. Environmental Protection Agency [EPA]
# National Institutes of Environmental Health Sciences [NIEHS]
# National Toxicology Program [NTP]
# U.S. Food and Drug Administration [FDA]
# Enhanced Level of Genome Instability Gene 1 (ELG1; human ATAD5) protein levels increase in response to various types of DNA damage. Using a luciferase reporter-gene tagged with ElG1, a cell-based assay [developed by Kyungjae Myung, NHGRI, NIH] was used to measure the induction of ATAD5 in human embryonic kidney cells (HEK293T). So, increase in luciferase activity can be used to identify the compounds that cause genetic stress. In addition to genotoxicity, these cells were also used to test for cytotoxicity by measuring the protease activity within live cells.
# Tox21 Assay Protocol Summary:
# For cytotoxicity screening, 2,000 cells in 5 uL/well were dispensed into white, solid-bottom 1536-well plates using a Multidrop Combi (Thermo Scientific) dispenser. Following transfer of 23 nL compound or DMSO vehicle by a pin tool, the plates were incubated 15.5 hr at 37C and 5% CO2. 1 ul CellTiter-Fluor reagent (Promega, Madison, WI) was then added to each plate and following 30 min incubation at 37C, fluorescence intensity was quantified on a ViewLux CCD-based plate reader.
# [6] = qHTS assay to identify small molecule antagonists of the progesterone receptor (PR) signaling pathway - cell viability counter screen (AID 1346798); note: nearly all actives have a fitted effect of over 50% in size;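 for activity change, negative = cytotoxicity: HEK293T PR-UAS-bla cells stimulated with the agonist R5020; series mostly up to about 92 µM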
# In short: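 HEK293T PR-UAS-bla, 2% charcoal-stripped FBS; 4 hr pre-plate; cpd + R5020, 16 h 37C; LiveBLAzer read first; then CellTiter-Glo 30 min RT, luminescence.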
# [7] = qHTS assay to identify small molecule agonists of the constitutive androstane receptor (CAR) signaling pathway - cell viability counter screen (AID 1224836); note: nearly all actives have a fitted effect of over 45% in size; for viability change, negative = cytotoxic: series mostly up to about 92 µM
# In short: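 HepG2-CYP2B6-hCAR, 2500 cells/well, 4 h pre-incubation; cpd 15 conc + PK11195 0.75 uM final; 23 h, 37 C/5% CO2; CellTiter-Fluor, fluorescence.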
# [8] = qHTS assay to identify small molecule antagonists of the thyroid receptor (TR) signaling pathway (AID 743065); note: nearly all actives have a fitted effect of over 55% in size
# In short: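 Antagonism measured as loss of luciferase signal in GH3 cells stably carrying a TRE-luciferase reporter, co-treated with compound and T3 (1 nM final) for 23.5 h at 37 C. Viability was read in the same well by CellTiter-Fluor.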
# % is set by controls: 0 for no effect and ±100 for the full control effect; potency is the fitted concentration of half-maximal effect.
compound,measurement,setting,value
CCN(CC)CCCC(C)Nc1ccnc2cc(Cl)ccc12 (stereo not given),"activity change, negative = cytotoxicity",[1],inactive: -17.1% [at 8.39 µM] [sample A] and inactive: -21.1% [at 19 µM] [sample B]
same,activity change,[2],"inactive: -7.89% [at 6.97 µM, stronger effect = higher value] [sample A]; also recorded: inactive: 2.16% [at 15.8 µM, stronger effect = higher value] [sample B]"
same,"activity change, negative = cytotoxicity",[3],inactive: -14.6% [at 8.39 µM] [sample A] and inactive: -20.6% [at 19 µM] [sample B]
same,"viability change, negative = cytotoxic",[4],inactive: -12.9% [at 6.97 µM] [sample A] and inactive: -0.916% [at 15.8 µM] [sample B]
COCCCOc1ccnc(CS(=O)c2nc3ccccc3[nH]2)c1C (stereo not given),Potency,[5],inactive [sample A] and active: 30.5 µM [sample B]
CN(C)CCOCCN(C)C,Potency,[2],inactive [sample A] and active: 43.6 µM [sample B]
CCCCCCCCCCCCOCCO,Potency,[6],active: 54.5 µM [sample A] and inactive [sample B]
C=C(C)C(=O)O[C@H]1C[C@@H]2CC[C@@]1(C)C2(C)C,Potency,[7],active: 8.58 µM [sample A] and inactive [sample B]
same,Potency,[1],active: 5.42 µM [sample A] and inactive [sample B]
same,Potency,[3],active: 9.63 µM [sample A] and inactive [sample B]
same,Potency,[6],active: 4.3 µM [sample A] and inactive [sample B]
CCCCCCCCCCCCCCCO,Potency,[4],active: 24.8 µM [sample A] and inactive [sample B]
CCc1ccc(CCOc2ccc(CC3SC(=O)NC3=O)cc2)nc1 (stereo not given),Potency,[8],inactive [sample A] and active: 61.1 µM [sample B]
CN(C)CCC(c1ccc(Cl)cc1)c1ccccn1 (stereo not given),Potency,[1],active: 54.6 µM [sample A] and inactive [sample B]
CCCSc1ccc2nc(NC(=O)OC)[nH]c2c1,Potency,[5],inactive [sample A] and active: 486 nM [sample B]

# Source: PubChem BioAssay (Tox21)
